Experimental data published in the supplement of paper PMC9151546.
Most values come without repeats; read them as rough.

Assays:
CHO-K1 [1] = assay: relative survival (nuclei to bead ratio vs DMSO control) (% of vehicle control); higher = more surviving cells
Procedure: (§1)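 Flow-cytometric in vitro micronucleus assay (Litron MicroFlow) in CHO-K1 cells in 96-well plates, 19 concentrations (4.5-200 µM, n=1 per concentration). Without S9, cells were exposed for 24 h and sampled at 48 h. With Aroclor 1254-induced rat liver S9, cells were exposed for 3-4 h and sampled at 27-28 h. Read-outs are %MN and %hypodiploid nuclei relative to nucleated events, and relative survival as the nuclei-to-bead ratio versus the 1% DMSO vehicle control (x100).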

CHO-K1 [2] = assay: micronucleus frequency (% of nucleated events); higher = more micronuclei (genotoxic)
CHO-K1 [3] = assay: hypodiploid nuclei frequency (% of nucleated events); higher = more hypodiploid events (aneugenic)
Procedure: as §1
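Throughout, for hypodiploid nuclei frequency (% of nucleated events): hypodiploid nuclei gated on a flow cytometer with 488 nm excitation after SYTOX Green staining, cultures at 37 °C, positive controls vinblastine without S9 and cyclophosphamide with S9.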
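Throughout, for micronucleus frequency (% of nucleated events): cells lysed with nuclei stained by SYTOX Green, then micronucleus-gated events counted against nucleated events by flow cytometry with 488 nm excitation.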
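Throughout, for relative survival (nuclei to bead ratio vs DMSO control): Lysed-cell nuclei stained with SYTOX Green and counted against counting beads by flow cytometry at 488 nm excitation, with vinblastine (no S9) and cyclophosphamide (plus S9) as positive controls.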

ClC1=C(Cl)C2(Cl)C3C(Cl)C=CC3C1(Cl)C2(Cl)Cl (centres undefined) [Heptachlor]
Conditions	hypodiploid nuclei frequency, CHO-K1 [3] [%]	micronucleus frequency, CHO-K1 [2] [%]	relative survival, CHO-K1 [1]
concentration: 4.5 (µM), S9 metabolic activation: with S9, exposure time: 3-4 hours	0.16	1.32	108
concentration: 4.5 (µM), S9 metabolic activation: without S9, exposure time: 24 hours	0.78	3.68	139
concentration: 5.63 (µM), S9 metabolic activation: with S9, exposure time: 3-4 hours	0.36	1.04	111
concentration: 5.63 (µM), S9 metabolic activation: without S9, exposure time: 24 hours	0.94	2.48	129
concentration: 7.04 (µM), S9 metabolic activation: with S9, exposure time: 3-4 hours	0.26	1.48	129
concentration: 7.04 (µM), S9 metabolic activation: without S9, exposure time: 24 hours	0.9	2.02	106
concentration: 8.8 (µM), S9 metabolic activation: with S9, exposure time: 3-4 hours	0.32	1.62	105
concentration: 8.8 (µM), S9 metabolic activation: without S9, exposure time: 24 hours	1.34	2.22	132
concentration: 11 (µM), S9 metabolic activation: with S9, exposure time: 3-4 hours	0.26	2.24	109
concentration: 11 (µM), S9 metabolic activation: without S9, exposure time: 24 hours	0.9	4.64	116
concentration: 13.7 (µM), S9 metabolic activation: with S9, exposure time: 3-4 hours	0.26	2.18	114
concentration: 13.7 (µM), S9 metabolic activation: without S9, exposure time: 24 hours	1.18	2.86	110
concentration: 17.2 (µM), S9 metabolic activation: with S9, exposure time: 3-4 hours	0.32	2.74	118
concentration: 17.2 (µM), S9 metabolic activation: without S9, exposure time: 24 hours	1.14	3.48	109
concentration: 21.5 (µM), S9 metabolic activation: with S9, exposure time: 3-4 hours	0.28	3.64	88.5
concentration: 21.5 (µM), S9 metabolic activation: without S9, exposure time: 24 hours	1.04	3.46	125
concentration: 26.8 (µM), S9 metabolic activation: with S9, exposure time: 3-4 hours	0.98	4.72	50.9
concentration: 26.8 (µM), S9 metabolic activation: without S9, exposure time: 24 hours	1.24	1.68	118
concentration: 33.6 (µM), S9 metabolic activation: with S9, exposure time: 3-4 hours	1.41	14.2	54.9
concentration: 33.6 (µM), S9 metabolic activation: without S9, exposure time: 24 hours	1.38	2.58	118
concentration: 41.9 (µM), S9 metabolic activation: with S9, exposure time: 3-4 hours	1.26	10.7	40.1
concentration: 41.9 (µM), S9 metabolic activation: without S9, exposure time: 24 hours	1.6	3.02	113
concentration: 52.4 (µM), S9 metabolic activation: with S9, exposure time: 3-4 hours	1.25	21.1	41.7
concentration: 52.4 (µM), S9 metabolic activation: without S9, exposure time: 24 hours	1.54	2.5	102
concentration: 65.5 (µM), S9 metabolic activation: with S9, exposure time: 3-4 hours	–	–	28.3
concentration: 65.5 (µM), S9 metabolic activation: without S9, exposure time: 24 hours	2.22	3.3	92.7
concentration: 81.9 (µM), S9 metabolic activation: with S9, exposure time: 3-4 hours	–	–	19.3
concentration: 81.9 (µM), S9 metabolic activation: without S9, exposure time: 24 hours	2.58	5.14	80.5
concentration: 102 (µM), S9 metabolic activation: without S9, exposure time: 24 hours	3.2	6.76	65.2
concentration: 128 (µM), S9 metabolic activation: without S9, exposure time: 24 hours	3.96	9.98	55
concentration: 160 (µM), S9 metabolic activation: without S9, exposure time: 24 hours	–	–	5.02
concentration: 200 (µM), S9 metabolic activation: without S9, exposure time: 24 hours	–	–	0.21

NS(=O)(=O)c1cc2c(cc1Cl)NCNS2(=O)=O [Hydrochlorothiazide]
Conditions	hypodiploid nuclei frequency, CHO-K1 [3] [%]	micronucleus frequency, CHO-K1 [2] [%]	relative survival, CHO-K1 [1]
concentration: 4.5 (µM), S9 metabolic activation: with S9, exposure time: 3-4 hours	0.38	2.54	87
concentration: 4.5 (µM), S9 metabolic activation: without S9, exposure time: 24 hours	1.3	2.56	127
concentration: 5.63 (µM), S9 metabolic activation: with S9, exposure time: 3-4 hours	0.32	2.3	85.5
concentration: 5.63 (µM), S9 metabolic activation: without S9, exposure time: 24 hours	0.98	2.3	129
concentration: 7.04 (µM), S9 metabolic activation: with S9, exposure time: 3-4 hours	0.38	2.42	80.6
concentration: 7.04 (µM), S9 metabolic activation: without S9, exposure time: 24 hours	1.2	2.06	144
concentration: 8.8 (µM), S9 metabolic activation: with S9, exposure time: 3-4 hours	0.48	2.12	91.6
concentration: 8.8 (µM), S9 metabolic activation: without S9, exposure time: 24 hours	1.26	2.1	158
concentration: 11 (µM), S9 metabolic activation: with S9, exposure time: 3-4 hours	0.32	1.82	94.4
concentration: 11 (µM), S9 metabolic activation: without S9, exposure time: 24 hours	1.38	1.9	127
concentration: 13.7 (µM), S9 metabolic activation: with S9, exposure time: 3-4 hours	0.5	1.68	100
concentration: 13.7 (µM), S9 metabolic activation: without S9, exposure time: 24 hours	0.74	2.06	119
concentration: 17.2 (µM), S9 metabolic activation: with S9, exposure time: 3-4 hours	0.28	1.96	86.7
concentration: 17.2 (µM), S9 metabolic activation: without S9, exposure time: 24 hours	1.24	1.58	124
concentration: 21.5 (µM), S9 metabolic activation: with S9, exposure time: 3-4 hours	0.38	2.2	106
concentration: 21.5 (µM), S9 metabolic activation: without S9, exposure time: 24 hours	1.18	1.76	141
concentration: 26.8 (µM), S9 metabolic activation: with S9, exposure time: 3-4 hours	0.42	1.22	93.2
concentration: 26.8 (µM), S9 metabolic activation: without S9, exposure time: 24 hours	1.68	1.86	126
concentration: 33.6 (µM), S9 metabolic activation: with S9, exposure time: 3-4 hours	0.5	1.3	94.2
concentration: 33.6 (µM), S9 metabolic activation: without S9, exposure time: 24 hours	1.8	2.08	134
concentration: 41.9 (µM), S9 metabolic activation: with S9, exposure time: 3-4 hours	0.26	1.22	90.7
concentration: 41.9 (µM), S9 metabolic activation: without S9, exposure time: 24 hours	1.9	1.98	116
concentration: 52.4 (µM), S9 metabolic activation: with S9, exposure time: 3-4 hours	0.22	1.32	74.7
concentration: 52.4 (µM), S9 metabolic activation: without S9, exposure time: 24 hours	1.38	2.08	115
concentration: 65.5 (µM), S9 metabolic activation: with S9, exposure time: 3-4 hours	0.38	1.32	106
concentration: 65.5 (µM), S9 metabolic activation: without S9, exposure time: 24 hours	1.56	1.96	129
concentration: 81.9 (µM), S9 metabolic activation: with S9, exposure time: 3-4 hours	0.24	1.6	112
concentration: 81.9 (µM), S9 metabolic activation: without S9, exposure time: 24 hours	1.76	2.38	127
concentration: 102 (µM), S9 metabolic activation: with S9, exposure time: 3-4 hours	0.22	1.42	105
concentration: 102 (µM), S9 metabolic activation: without S9, exposure time: 24 hours	1.68	2.44	129
concentration: 128 (µM), S9 metabolic activation: with S9, exposure time: 3-4 hours	0.3	1.14	89.1
concentration: 128 (µM), S9 metabolic activation: without S9, exposure time: 24 hours	2.14	1.94	149
concentration: 160 (µM), S9 metabolic activation: with S9, exposure time: 3-4 hours	0.24	1.44	81.7
concentration: 160 (µM), S9 metabolic activation: without S9, exposure time: 24 hours	1.88	2.44	129
concentration: 200 (µM), S9 metabolic activation: with S9, exposure time: 3-4 hours	0.32	1.76	75.7
concentration: 200 (µM), S9 metabolic activation: without S9, exposure time: 24 hours	2.58	2.74	122

NC(=O)NO [Hydroxyurea]
Conditions	hypodiploid nuclei frequency, CHO-K1 [3] [%]	micronucleus frequency, CHO-K1 [2] [%]	relative survival, CHO-K1 [1]
concentration: 4.5 (µM), S9 metabolic activation: with S9, exposure time: 3-4 hours	0.42	1.82	89.5
concentration: 4.5 (µM), S9 metabolic activation: without S9, exposure time: 24 hours	1.44	1.72	106
concentration: 5.63 (µM), S9 metabolic activation: with S9, exposure time: 3-4 hours	0.22	1.36	80.2
concentration: 5.63 (µM), S9 metabolic activation: without S9, exposure time: 24 hours	1.32	1.68	106
concentration: 7.04 (µM), S9 metabolic activation: with S9, exposure time: 3-4 hours	0.36	1.44	117
concentration: 7.04 (µM), S9 metabolic activation: without S9, exposure time: 24 hours	1.24	1.68	132
concentration: 8.8 (µM), S9 metabolic activation: with S9, exposure time: 3-4 hours	0.44	1.44	99.1
concentration: 8.8 (µM), S9 metabolic activation: without S9, exposure time: 24 hours	1.08	2.1	119
concentration: 11 (µM), S9 metabolic activation: with S9, exposure time: 3-4 hours	0.26	1.36	108
concentration: 11 (µM), S9 metabolic activation: without S9, exposure time: 24 hours	0.94	1.88	109
concentration: 13.7 (µM), S9 metabolic activation: with S9, exposure time: 3-4 hours	0.18	2.06	95.2
concentration: 13.7 (µM), S9 metabolic activation: without S9, exposure time: 24 hours	0.98	1.92	134
concentration: 17.2 (µM), S9 metabolic activation: with S9, exposure time: 3-4 hours	0.22	1.58	87
concentration: 17.2 (µM), S9 metabolic activation: without S9, exposure time: 24 hours	1.14	2.76	111
concentration: 21.5 (µM), S9 metabolic activation: with S9, exposure time: 3-4 hours	0.14	1.82	82.6
concentration: 21.5 (µM), S9 metabolic activation: without S9, exposure time: 24 hours	1.38	2.42	96.8
concentration: 26.8 (µM), S9 metabolic activation: with S9, exposure time: 3-4 hours	0.2	1.9	109
concentration: 26.8 (µM), S9 metabolic activation: without S9, exposure time: 24 hours	2.12	1.98	98.5
concentration: 33.6 (µM), S9 metabolic activation: with S9, exposure time: 3-4 hours	0.42	2.34	110
concentration: 33.6 (µM), S9 metabolic activation: without S9, exposure time: 24 hours	1.62	2.28	86.8
concentration: 41.9 (µM), S9 metabolic activation: with S9, exposure time: 3-4 hours	0.48	2.12	105
concentration: 41.9 (µM), S9 metabolic activation: without S9, exposure time: 24 hours	2.86	2.4	82.1
concentration: 52.4 (µM), S9 metabolic activation: with S9, exposure time: 3-4 hours	0.24	1.9	78.5
concentration: 52.4 (µM), S9 metabolic activation: without S9, exposure time: 24 hours	3.5	2.86	81.1
concentration: 65.5 (µM), S9 metabolic activation: with S9, exposure time: 3-4 hours	0.24	1.84	90.9
concentration: 65.5 (µM), S9 metabolic activation: without S9, exposure time: 24 hours	5.18	3.68	84.1
concentration: 81.9 (µM), S9 metabolic activation: with S9, exposure time: 3-4 hours	0.36	2.08	102
concentration: 81.9 (µM), S9 metabolic activation: without S9, exposure time: 24 hours	4.4	3.56	76.7
concentration: 102 (µM), S9 metabolic activation: with S9, exposure time: 3-4 hours	0.28	1.6	97.5
concentration: 102 (µM), S9 metabolic activation: without S9, exposure time: 24 hours	4.74	4.08	69.8
concentration: 128 (µM), S9 metabolic activation: with S9, exposure time: 3-4 hours	0.24	1.92	85.5
concentration: 128 (µM), S9 metabolic activation: without S9, exposure time: 24 hours	3.78	3.96	82.1
concentration: 160 (µM), S9 metabolic activation: with S9, exposure time: 3-4 hours	0.32	1.94	99.1
concentration: 160 (µM), S9 metabolic activation: without S9, exposure time: 24 hours	3.48	4.16	65.4
concentration: 200 (µM), S9 metabolic activation: with S9, exposure time: 3-4 hours	0.36	1.86	84.1
concentration: 200 (µM), S9 metabolic activation: without S9, exposure time: 24 hours	2.72	4.26	58.8
